Test results taken from PubChem BioAssay AID588579 (National Center for Advancing Translational Sciences (NCATS), 2011).
In all, about 400,000 compounds went through this assay and about 2,200 (0.55%) were called active. The shares of active, inactive and inconclusive entries below differ from those in the screen. Calls follow the shape of the dose curve; as a rule, active = well fitted inhibition curve with a large enough effect; inconclusive = small, poorly fitted or top-dose-only effect, or another doubt; inactive = no such curve, though single readings can be large or run the other way. Potencies beside an inconclusive call are fits to weak or partial responses and may not hold up.

molecular target: DNA polymerase kappa (Homo sapiens) (UniProt Q9UBT6); assay: qHTS for Inhibitors of Polymerase Kappa; settings: purified Pol kappa, fluorescent DNA synthesis assay, 10 min; series mostly up to 107 µM; activity, negative = inhibition: at the top concentration
Outline: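 Inhibition of 10 nM Pol kappa is measured by a fluorescent read-out at 0 and 10 min following addition of 50 nM substrate (final), with a 15-min room-temperature compound preincubation.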
% is scaled to controls: 0 for no effect and ±100 for the full control effect; potency is read from the fitted curve at half-maximal effect; tags tell the direction and shape of the fitted curve.

Chain of UniProt Q9UBT6 (Q9UBT6 whole entry, looked up): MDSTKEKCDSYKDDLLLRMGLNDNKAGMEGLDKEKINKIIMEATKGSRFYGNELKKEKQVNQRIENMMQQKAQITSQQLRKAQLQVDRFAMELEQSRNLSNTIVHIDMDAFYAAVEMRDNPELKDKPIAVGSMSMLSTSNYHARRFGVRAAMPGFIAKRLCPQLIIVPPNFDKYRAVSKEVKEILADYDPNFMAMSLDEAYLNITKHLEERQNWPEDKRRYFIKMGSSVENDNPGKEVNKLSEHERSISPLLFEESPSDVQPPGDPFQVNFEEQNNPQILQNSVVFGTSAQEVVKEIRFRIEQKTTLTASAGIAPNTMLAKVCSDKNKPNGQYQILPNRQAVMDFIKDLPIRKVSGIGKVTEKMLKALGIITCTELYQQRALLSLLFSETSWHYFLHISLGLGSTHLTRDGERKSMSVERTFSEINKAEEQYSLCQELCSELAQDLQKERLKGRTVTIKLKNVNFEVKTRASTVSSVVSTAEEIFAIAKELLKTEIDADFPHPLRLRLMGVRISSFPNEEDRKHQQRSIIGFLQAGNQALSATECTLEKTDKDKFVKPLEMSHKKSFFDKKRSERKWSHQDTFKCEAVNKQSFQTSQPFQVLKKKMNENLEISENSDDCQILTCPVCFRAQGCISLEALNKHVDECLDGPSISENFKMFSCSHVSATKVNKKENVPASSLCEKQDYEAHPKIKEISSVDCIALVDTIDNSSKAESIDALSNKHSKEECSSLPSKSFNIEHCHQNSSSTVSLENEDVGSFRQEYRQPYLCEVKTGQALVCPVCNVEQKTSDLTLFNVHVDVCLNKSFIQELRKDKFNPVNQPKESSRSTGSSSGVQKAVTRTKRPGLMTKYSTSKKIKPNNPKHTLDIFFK

Potency, active:
C=CCn1c(SCc2nc3sc(C(=O)O)c(C)c3c(=O)[nH]2)nnc1-c1ccc(C(C)(C)C)cc1 35.5 µM
COc1ccc(CC(=O)N/N=C/c2ccc(-c3cccc(C(=O)O)c3)o2)cc1OC 79.4 µM
CN(C)c1ccc(Cc2cc3c(O)ccc(O)c3cc(Cc3ccc(N(C)C)cc3)c2=O)cc1 7.94 µM
O=C(CSc1ncccc1-c1nc2ccccc2[nH]1)NCc1ccco1 50.1 µM
C=CC[n+]1ccc(/C=C2\C=Cc3cc(C)ccc3N2CC)c2ccccc21 50.1 µM
O=C(CSc1ccc(-c2ccco2)nn1)c1ccc(F)cc1 31.6 µM
CCOC(=O)C1=C(COC(=O)/C=C/c2ccco2)NC(=O)NC1C (stereo not given) 50.1 µM
O=C(NC1CCCC1)c1ccc2nc(-c3ccco3)c(-c3ccco3)nc2c1 22.4 µM
CC(C)=C1C(=O)NN(c2ccc(F)c(Cl)c2)C1=O 25.1 µM
COC(=O)C1=C(CSc2nc3c(cc2C#N)CN(C)CC3)OC(N)=C(C#N)C1c1ccc(F)cc1 (stereo not given) 70.8 µM

Potency, inconclusive:
COC(=O)C1=CN(Cc2ccc(C)cc2)C=C(C(=O)OC)C1c1cc(OC)c(OC)c(OC)c1 89.1 µM [inhibitor, partial curve, poor fit]
CCSc1nnc(NC(=O)C2Cc3ccccc3CN2C(=O)c2ccco2)s1 (stereo not given) 56.2 µM [inhibitor, partial curve, poor fit]
CC(C)NS(=O)(=O)c1ccc(CCC(=O)O)cc1 35.5 µM [inhibitor, single point]
CCOC(=O)C1Nc2ccc(C(F)(F)F)cc2C2C=CCC12 (stereo not given) 56.2 µM [inhibitor, partial curve, poor fit]
COC(=O)c1cc2occc2n1CC(=O)Nc1ccc(C(C)C)cc1 100 µM [inhibitor, partial curve, poor fit]
CCOC(=O)c1ccc(NC(=O)CSCc2ccco2)cc1 89.1 µM [inhibitor, single point]
CN(c1ccc(OCC(=O)OCC(=O)Nc2ccc(OC(F)F)cc2)cc1)S(=O)(=O)c1cccs1 100 µM [inhibitor, single point]
COc1ccc(Nc2ncnc3c2c(C)c(C)n3CCCN(C)C)cc1 89.1 µM [inhibitor, single point]
CCCn1c(=O)n(C)c(=O)c2c(SCC(=O)NCc3ccco3)nc(C3CC3)nc21 89.1 µM [inhibitor, partial curve, poor fit]
COc1cc2c(NC3CCN(C(C)C)CC3)nc(N3CCCN(C)CC3)nc2cc1OCCOCCN1CCCC1 89.1 µM [inhibitor, partial curve, poor fit]
Cc1occc1C(=O)Nc1cccc(/C=C/C(=O)O)c1 39.8 µM [inhibitor, full curve]
Cc1cc(C)c2nc3nc(C)cc(C)c3c(N)c2c1 89.1 µM [inhibitor, single point]
NC(=O)C1CCN(CC(=O)Nc2ccc3c(c2)OCCO3)CC1 100 µM [inhibitor, single point]
Cc1ccc(CCNC(=O)c2cc3c(s2)-c2ccccc2OC3)cc1 79.4 µM [inhibitor, partial curve]
O=C(c1ccccc1F)N1CCCc2ccccc21 89.1 µM [inhibitor, single point]
Cc1ccc(SCC(=O)Nc2ccc(-c3nnc(-c4ccco4)o3)cc2)cc1 89.1 µM [inhibitor, partial curve, poor fit]
CCOC(=O)C1(CC)Oc2ccccc2C(c2ccc(OC)cc2)=C1C(=O)OC (stereo not given) 50.1 µM [inhibitor, partial curve, poor fit]
Cc1csc(=O)n1CCC(=O)OCC(=O)c1c(N)n(C)c(=O)n(C)c1=O 89.1 µM [inhibitor, single point]
CC1(C)Cc2c(c(-c3ccco3)nc3sc4c(NCCCO)ncnc4c23)CO1 89.1 µM [inhibitor, partial curve, poor fit]
Cc1cc(/C=C2\SC(=S)NC2=O)c(C)n1-c1ccc(O)cc1 89.1 µM [inhibitor, single point]
Cc1ccc(S(=O)(=O)N(C)C)cc1NC(=O)c1cc(-c2ccco2)nc2ccccc12 100 µM [inhibitor, single point]
Cc1cc(C(=O)NCc2ccco2)on1 79.4 µM [inhibitor, partial curve]
O=C(O)CSc1cc(NS(=O)(=O)c2cccc([N+](=O)[O-])c2)c2ccccc2c1O 100 µM [inhibitor, single point]
COc1ccc(-c2nc(NC(=O)C3CC(=O)N(c4ccc5c(c4)OCCO5)C3)sc2C)cc1 (stereo not given) 63.1 µM [inhibitor, partial curve, poor fit]

activity, negative = inhibition, inactive:
CCc1ccc(S(=O)(=O)c2c(C(=O)c3ccccc3)cnc3ccc(CC)cc23)cc1 -2.49%
O=c1[nH]c(=O)n([C@H]2C[C@@H](O)[C@@H](CO)O2)cc1F -2.27%
COc1ccc(OC)c(NC(=O)Cn2nc3c(cc2=O)CCCC3)c1 -16%
CC1CCC(NC(=O)c2ccc3c(c2)N(Cc2ccccc2F)C(=O)c2ccccc2S3)CC1 (stereo not given) -9.63% [at 60.1 µM]
COC(=O)c1ccccc1NC(=O)CSCC(=O)Nc1ccccc1 -11%
CCCN(CCC)CCCNC(=O)c1cc2c(-c3ccc(Cl)cc3)nn(C)c2s1 -10%
COc1ccccc1CCNC(=O)Cc1c(C)c2c(O)cc(C)cc2oc1=O 5.97%
Brc1cccc[n+]1Cc1ccc(C[n+]2ccccc2Br)cc1 0.42%
O=C(Nc1ccc(N2CCOCC2)cc1N1CCOCC1)c1ccc([N+](=O)[O-])cc1 -10.7%
COc1ccc(S(=O)(=O)N2CCN(CC(=O)N3CCOCC3)CC2)cc1OC -0.432%
CCCCN1C(=O)C(NC(=O)c2ccc(C(C)(C)C)cc2)(C(F)(F)F)C(C(=O)OC)=C1C (stereo not given) -10.6%
